# Results from the supplement of paper PMC8728848.
# The other results are listed elsewhere or left out.
# Key:
# Test in all cases: glycan array binding signal (z-score within array); higher = stronger binding
# Settings in all cases: glycan notation: IUPAC condensed, linker removed
# [1] = target: Gal(b1-3)[Fuc(a1-4)]GlcNAc(b1-2)Man(a1-3)[Gal(b1-3)[Fuc(a1-4)]GlcNAc(b1-2)Man(a1-6)]Man(b1-4)GlcNAc(b1-4)GlcNAc
# Method in brief: (§1)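 The binding signal is a Z-score computed within each array. Data were drawn from 3228 arrays in the Consortium for Functional Glycomics database, restricted to those with a known protein sequence. Scores were averaged over arrays of the same protein sequence at different concentrations or buffers, and over linkers, and negative values can be taken as non-binding.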
# [2] = target: Gal(b1-3)[Fuc(a1-4)]GlcNAc(b1-2)Man(a1-3)[Gal(b1-3)[Fuc(a1-4)]GlcNAc(b1-2)Man(a1-6)]Man(b1-4)GlcNAc(b1-4)[Fuc(a1-6)]GlcNAc
# Method in brief: as §1
# [3] = target: Gal(b1-3)[Fuc(a1-4)]GlcNAc(b1-3)Gal(b1-3)[Fuc(a1-4)]GlcNAc
# Method in brief: as §1
# [4] = target: Gal(b1-3)[Fuc(a1-4)]GlcNAc(b1-3)Gal(b1-4)GlcNAc
# Method in brief: as §1
# [5] = target: Gal(b1-3)[Fuc(a1-4)]GlcNAc(b1-3)Gal(b1-4)[Fuc(a1-3)]GlcNAc
# Method in brief: as §1
# [6] = target: Gal(b1-3)[GlcNAc(b1-6)]GalNAc
# Method in brief: as §1
# [7] = target: Gal(b1-3)[Neu5Ac(a2-6)]GalNAc
# Method in brief: as §1
# [8] = target: Gal(b1-3)[Neu5Ac(a2-6)]GlcNAc(b1-6)Gal(b1-4)Glc
# Method in brief: as §1
# [9] = target: Gal(b1-3)[Neu5Ac(b2-6)]GalNAc
# Method in brief: as §1
# [10] = target: Gal(b1-4)GalNAc(a1-3)[Fuc(a1-2)]Gal(b1-4)GlcNAc
# Method in brief: as §1
# [11] = target: Gal(b1-4)GalNAc(b1-3)[Fuc(a1-2)]Gal(b1-4)GlcNAc
# Method in brief: as §1
# Gal(b1-4)Glc = target: Gal(b1-4)Glc
# Method in brief: as §1
# Gal(b1-4)Glc6S = target: Gal(b1-4)Glc6S
# Method in brief: as §1
# Gal(b1-4)GlcNAc = target: Gal(b1-4)GlcNAc
# Method in brief: as §1
# [12] = target: Gal(b1-4)GlcNAc(a1-6)Gal(b1-4)GlcNAc
# Method in brief: as §1
# [13] = target: Gal(b1-4)GlcNAc(b1-2)Man(a1-3)Man(b1-4)GlcNAc(b1-4)GlcNAc
# Method in brief: as §1
# [14] = target: Gal(b1-4)GlcNAc(b1-2)Man(a1-3)[Gal(b1-4)GlcNAc(b1-2)Man(a1-6)]Man(b1-4)GlcNAc(b1-4)GlcNAc
# Method in brief: as §1
# [15] = target: Gal(b1-4)GlcNAc(b1-2)Man(a1-3)[Gal(b1-4)GlcNAc(b1-2)Man(a1-6)]Man(b1-4)GlcNAc(b1-4)[Fuc(a1-6)]GlcNAc
# Method in brief: as §1
# [16] = target: Gal(b1-4)GlcNAc(b1-2)Man(a1-3)[Man(a1-6)]Man(b1-4)GlcNAc(b1-4)GlcNAc
# Method in brief: as §1
# [17] = target: Gal(b1-4)GlcNAc(b1-2)Man(a1-6)Man(b1-4)GlcNAc(b1-4)GlcNAc
# Method in brief: as §1
# [18] = target: Gal(b1-4)GlcNAc(b1-2)Man(a1-6)[Man(a1-3)]Man(b1-4)GlcNAc(b1-4)GlcNAc
# Method in brief: as §1
# [19] = target: Gal(b1-4)GlcNAc(b1-2)[Gal(b1-4)GlcNAc(b1-4)]Man(a1-3)[Gal(b1-4)GlcNAc(b1-2)Man(a1-6)]Man(b1-4)GlcNAc(b1-4)GlcNAc
# Method in brief: as §1
# [20] = target: Gal(b1-4)GlcNAc(b1-3)Gal(b1-3)GlcNAc
# Method in brief: as §1
# [21] = target: Gal(b1-4)GlcNAc(b1-3)Gal(b1-4)Glc
# Method in brief: as §1
# [22] = target: Gal(b1-4)GlcNAc(b1-3)Gal(b1-4)GlcNAc
# Method in brief: as §1
# [23] = target: Gal(b1-4)GlcNAc(b1-3)Gal(b1-4)GlcNAc(b1-3)Gal(b1-4)GlcNAc
# Method in brief: as §1
# [24] = target: Gal(b1-4)GlcNAc(b1-3)Gal(b1-4)[Fuc(a1-3)]GlcNAc(b1-3)Gal(b1-4)[Fuc(a1-3)]GlcNAc
# Method in brief: as §1
# [25] = target: Gal(b1-4)GlcNAc(b1-3)GalNAc
# Method in brief: as §1
# [26] = target: Gal(b1-4)GlcNAc(b1-3)[Gal(b1-4)GlcNAc(b1-6)]Gal(b1-4)GlcNAc
# Method in brief: as §1
# [27] = target: Gal(b1-4)GlcNAc(b1-3)[GlcNAc(b1-6)]Gal(b1-4)GlcNAc
# Method in brief: as §1
binder,measurement,setting,value
"Neuropilin-2 (Homo sapiens), O60462 (protein) MDMFPLTWVFLALYFSRHQVRGQPDPPCGGRLNSKDAGYITSPGYPQDYPSHQNCEWIVYAPEPNQKIVLNFNPHFEIEKHDCKYDFIEIRDGDSESADLLGKHCGNIAPPTIISSGSMLYIKFTSDYARQGAGFSLRYEIFKTGSEDCSKNFTSPNGTIESPGFPEKYPHNLDCTFTILAKPKMEIILQFLIFDLEHDPLQVGEGDCKYDWLDIWDGIPHVGPLIGKYCGTKTPSELRSSTGILSLTFHTDMAVAKDGFSARYYLVHQEPLENFQCNVPLGMESGRIANEQISASSTYSDGRWTPQQSRLHGDDNGWTPNLDSNKEYLQVDLRFLTMLTAIATQGAISRETQNGYYVKSYKLEVSTNGEDWMVYRHGKNHKVFQANNDATEVVLNKLHAPLLTRFVRIRPQTWHSGIALRLELFGCRVTDAPCSNMLGMLSGLIADSQISASSTQEYLWSPSAARLVSSRSGWFPRIPQAQPGEEWLQVDLGTPKTVKGVIIQGARGGDSITAVEARAFVRKFKVSYSLNGKDWEYIQDPRTQQPKLFEGNMHYDTPDIRRFDPIPAQYVRVYPERWSPAGIGMRLEVLGCDWTDSKPTVETLGPTVKSEETTTPYPTEEEATECGENCSFEDDKDLQLPSGFNCNFDFLEEPCGWMYDHAKWLRTTWASSSSPNDRTFPDDRNFLRLQSDSQREGQYARLISPPVHLPRSPVCMEFQYQATGGRGVALQVVREASQESKLLWVIREDQGGEWKHGRIILPSYDMEYQIVFEGVIGKGRSGEIAIDDIRISTDVPLENCMEPISAFAGENFKVDIPEIHEREGYEDEIDDEYEVDWSNSSSATSGSGAPSTDKEKSWLYTLDPILITIIAMSSLGVLLGATCAGLLLYCTCSYSGLSSRSCTTLENYNFELYDGLKHKVKMNHQKCCSEA",glycan array binding signal (z-score),[1],5.64
same,glycan array binding signal (z-score),[2],1.72
same,glycan array binding signal (z-score),[3],-0.27
same,glycan array binding signal (z-score),[4],-0.757
same,glycan array binding signal (z-score),[5],-0.191
same,glycan array binding signal (z-score),[6],-0.276
same,glycan array binding signal (z-score),[7],-0.62
same,glycan array binding signal (z-score),[8],-0.319
same,glycan array binding signal (z-score),[9],-0.168
same,glycan array binding signal (z-score),[10],-0.662
same,glycan array binding signal (z-score),[11],0.436
same,glycan array binding signal (z-score),Gal(b1-4)Glc,-0.299
same,glycan array binding signal (z-score),Gal(b1-4)Glc6S,0.052
same,glycan array binding signal (z-score),Gal(b1-4)GlcNAc,-0.44
same,glycan array binding signal (z-score),[12],-0.491
same,glycan array binding signal (z-score),[13],-0.628
same,glycan array binding signal (z-score),[14],-0.476
same,glycan array binding signal (z-score),[15],-0.133
same,glycan array binding signal (z-score),[16],0.279
same,glycan array binding signal (z-score),[17],-0.457
same,glycan array binding signal (z-score),[18],0.295
same,glycan array binding signal (z-score),[19],-0.199
same,glycan array binding signal (z-score),[20],-0.249
same,glycan array binding signal (z-score),[21],-0.105
same,glycan array binding signal (z-score),[22],-0.377
same,glycan array binding signal (z-score),[23],-0.196
same,glycan array binding signal (z-score),[24],-0.328
same,glycan array binding signal (z-score),[25],-0.331
same,glycan array binding signal (z-score),[26],-0.256
same,glycan array binding signal (z-score),[27],-0.263
